Data reported in the RNAGym collection of RNA variant scans (doi:10.1093/nar/gkz1192).
Read counts are not given, so values of variants with three or more changes are uncertain.

B1: CPEB3 Ribozyme (parent)
chain: UAACAGGGGGCCACAGCAGAAGCGUUCACGUCGCAGCCCCUGUCAGAUUCUGGUGAAUCUGCGAAUUCUGCUGUAUAUCUC

Variants of: B1
Assay: self-cleavage, relative activity (ratio to wild type); higher = more cleavage; in vitro, sequencing
How it was run: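 After error-prone PCR and barcoding, CPEB3 ribozyme mutant libraries were transcribed with T7 RNA polymerase at 37°C for 5 hours, then given 15 min with DNase I before an EDTA stop, and they cleaved during both steps. Reverse transcription with template switching preceded Illumina sequencing. Relative activity divides a variant's cleaved/total read fraction by the unmutated ribozyme's. At least 5 reads were required per variant, and three batches were averaged.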

Variant | self-cleavage
UAACAGGGGGCCACAGCAGAUGCGUUCACGUCGCAGCCCCUGGCAGGUUCUGGUGAAUCUGCGAAUCCUGCUGGAUAUCUC [A21U U43G A47G U67C U74G] | 0.03
UAACAGGGGGCCACAGCAGAUGCGUUCACGUCGCAGCCCCUGCCAAAUUCUUGUGAAUCUGAGAAUUCUGCUGUAUAUCAU [A21U U43C G46A G52U C62A U80A C81U] | 0.03
UAACAGGGGGCCACAGCAGAAACGUUCACGUCGCAGCCCCUGUCAGAUUUUGGUGAAUCAGCGAAUUCUGCUAUAUAUCUC [G22A C50U U60A G73A] | 0.12
UAACAGGGGGCCACAGCAGAUGCGUUCACGUCGCAGCCCCUGCCAGAUUCUGGUGAAUCUGCGAAUUCCGCCGUAUAUCUC [A21U U43C U69C U72C] | 0.16
UAACAGGGGGCCACAGCAGAAACGUACACGUCGCAGCCCCUGUCAGAUUCUGGUGGAUCUGCGAAUUCAGCUGUAUAUCUC [G22A U26A A56G U69A] | 0.16
UAACAGGGGGCCACAGCAGAAACGUACACGUCGCAGCCCCUGUCAGAUUCUGGUGUAUCUGCGAAUUCUGCUGUAUAUCUC [G22A U26A A56U] | 0.25
UAACAGGGGGCCACAGCAGAUGCGUUCACGUCGCAGCCCCUGUCAGAUUCUGGUGAAUCUGCGAACUCAGCUGUAUAUCUC [A21U U66C U69A] | 0.15
UAACAGGGGGCCACAGCAGAAACGUUCACGUCGCAGCCCCUGUCGGAUUCUGGUGAAUCUGCGAAUCCAGCUGUAUAUCUC [G22A A45G U67C U69A] | 0.17
UAACAGGGGGCCACAGCAGAAACGUUCACGUCACAGCCCCUGUCAGAUUCUGGUGAAUCUGCGAAUUCUGCUGAAUAUCUC [G22A G33A U74A] | 0.09
UAACAGGGGGCCACAGCAGAAACGUUCACGUCGCAGCCCCUGUCAGAUUCUGGUGAAUGUGCGAAUUCUGCUGUCUAUCUC [G22A C59G A75C] | 0.13
UAACAGGGGGCCACAGCAGAUGCGUUCACGUCGCAGCCCCUGUCAGAUUCUGGUGAAUCUGCGAAUUCAGCCGUAUAUCUC [A21U U69A U72C] | 0.41
UAACAGGGGGCCACAGCAGAAACGUUCAAGUGGCAGCCCCUGUCAGAUUCUGGUGAAUCUGCGAAUUCUACUGUAUUUCUC [G22A C29A C32G G70A A77U] | 0.03
UAACAGGGGGCCACAGCAGAAACGUUCACGUCGCAGCACCUAUCAGAUUCCGGUGAAUCUGCGAAUUCUGCUGUAUAUCUC [G22A C38A G42A U51C] | 0.08
UAACAGGGGGCCACAGCAGAUGCGUUCACGUCGCAGCCCCUGUCAGAUUCCGGUGAAUCUGCGUAUUCCGCUGUAUAUCUC [A21U U51C A64U U69C] | 0.08
UAACAGGGGGCCACAGCAGAAACGUUCACGUCGCAGCCCCUGUCAGAUUCUGGUGUAUCUGCGAAAUCUGCUGUAUAUCUC [G22A A56U U66A] | 0.1
UAACAGGGGGCCACAGCAGAAACGUACACGUCGCAGCCCCUGUCAGAUUCUGGUCUAUCUGCUAAUUCUGCUGUAUAUCCC [G22A U26A G55C A56U G63U U80C] | 0.13
UAACAGGGGGCCACAGCAGAUGCGUUCACGUCGCAGCCCCUGUCAGAUUCUGGCGAAUCUGCGAGCUCUGCUGUAUAUCUC [A21U U54C A65G U66C] | 0.14

Variant | self-cleavage
UAACAGGGGGCCACAGCAGAUGCGUUCACGUCGCAGCCCCUGUCAGAUUCUGGUGAAUCAGCGAGUCCUGCUGUAUAUCCC [A21U U60A A65G U67C U80C] | 0.1
UAACAGGGGGCCACAGCAGAAACGUUCACGUUGCAGCCCAUGUCAGAUUCUGGUGAAUCUGCGAGUUCUGCUGUAUAUCUC [G22A C32U C40A A65G] | 0.28
UAACAGGGGGCCACAGCAGAAACGUUCACGUCGCAGCCCCUGUCAGAUUCUGGUGAAUCUGCGGAUCCAGCUGUAUAUCAC [G22A A64G U67C U69A U80A] | 0.04
UAACAGGGGGCCACAGCAGAAACGCCCACGUCGCAGCCCCUGUCAGAUUCUGGUGAAUCCGCGAAUUCUGCUGUAUAUCUC [G22A U25C U26C U60C] | 0.36
UAACAGGGGGCCACAGCAGAAACGCUCUCAUCGCAGCCCCCGUUAGAUUCUGGUGAAUCUGCGAAUUCUGCUGUAUAUCUC [G22A U25C A28U G30A U41C C44U] | 0.23
UAACAGGGGGCCACAGCAGAUGCGUUCACGUCGCAGCCCCUGUCAGAUUCCGGUGAAUCUGCGAGUUCUGCUGUAUAUCUC [A21U U51C A65G] | 0.1
UAACAGGGGGCCACAGCAGAAACGUUCACGUCGCAGCCCCUGUCAGAUUCUGGUGAAUCUGCGAGUCCUGCUGUAUAUCUC [G22A A65G U67C] | 0.22
UAACAGGGGGCCACAGCAGAUGCGUUCACGUCGCAGCCCCUGCCAGAUUCUGGUGAAUCUGCGAAUUCUGCUGUAUACCUC [A21U U43C U78C] | 0.2
UAACAGGGGGCCACAGCAGAAACGUUCACGUCGCAGCCCCUGUCAGAUUCUGGUGUAUCCACGAAUUCUGCUGUAUAUCUC [G22A A56U U60C G61A] | 0.06
UAACAGGGGGCCACAGCAGAUGCGUUCACGUCGCAGCCCCUGUCAGAUUCUGGCGAAUCUGCGAAUUCUGCUGUAUACCUC [A21U U54C U78C] | 0.33
UAACAGGGGGCCACAGCAGAAACGUUCACGUCGCGGCCCCUGUCGGAUCCUGGUGAAUCUGCGAAUUCUGCUGAAUAUCUC [G22A A35G A45G U49C U74A] | 0.06
UAACAGGGGGCCACAGCAGAAACGCUCACGUCGCAGCCCCUGUCAGAUUCUGGUGAAUCUGCGAAUCCUGCUGUAUAUCUC [G22A U25C U67C] | 0.37
UAACAGGGGGCCACAGCAGAUGCGUUCACGUCGCAGCCCCUGUCAGAUUCUGGUGAAUCUGCGAAUCCUGGUGUAUAUCUC [A21U U67C C71G] | 0.07
UAACAGGGGGCCACAGCAGAAACGUUCACGUCGCAGCCCCUGUCAGGUUCAGGUGAAUCCGCGAAUUCUGCCGUACAUCUC [G22A A47G U51A U60C U72C U76C] | 0.08
UAACAGGGGGCCACAGCAGAAACGUACACGUAGCAGCCCCGGUCAGAUUCUGGUGAAUCAGCGAGUUCUGCUGUAUAUCUC [G22A U26A C32A U41G U60A A65G] | 0.13
UAACAGGGGGCCACAGCAGAUGCGUUCACGUCGCAGCCCCUGCCAGAUUCUGGUGAGUCUGCGAAUUCUGCUGUAUACCUC [A21U U43C A57G U78C] | 0.12
UAACAGGGGGCCACAGCAGAAACGUUCACGUCGCAGCCCCUGUCAGAUUCUGGUGGAUCUGCGGAUUCUGCUGUAUAUCUC [G22A A56G A64G] | 0.3
